Max response and AC50 data for 29 compounds are collected here from PubChem BioAssay (NCATS).

The list shows a part of the results. Shown are side measurements of this screen, not its main read-out; they come without a call. The list favours compounds with an active or inconclusive main result. The note in brackets gives the kind of curve behind each potency; many fits are weak.

This assay can be described thus: qHTS Assay for Lipid Storage Modulators (AID 1519). The conditions noted are these: Drosophila S3 cells, BODIPY lipid droplet/cell ratio, laser cytometry, cells loaded with oleic acid. The essentials:
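Cells seeded at 5,000 per well were treated with compounds over a concentration series and loaded with oleic acid (400 uM, as added). Lipid droplet fluorescence (488 nm excitation, 500-530 nm channel) was read by laser-scanning cytometry and normalized to 20 uM Triacsin C.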
A general note: qHTS replaces the single test concentration by a dilution series.

Where [1] appears, read: measured here: cell count channel max response.
Where [2] appears, read: measured here: lipid (BODIPY) channel AC50.
Setting [3] is: measured here: lipid channel max response.
Where [4] appears, read: measured here: cell number channel AC50.
Tags tell the direction and shape of the fitted curve.

By AC50 is commonly meant the midpoint of the concentration-response curve, whichever way the signal moves. As for `O=c1c(-c2ccc(F)cc2)nc2cnc(Oc3ccccc3)nc2n1C[C@H]1CCCO1`, the max response under setting [1] was -4.27% and the max response under setting [3] was -42.5%. In addition, the AC50 under setting [2] is 17.8 µM [falling, single point].
`COc1ccc2c(c1)OC/C(=C/c1ccc(OC)c(OC)c1)C2=O`: the max response under setting [1] stood at 4.43% and the max response under setting [3] amounted to 10.1%. Moreover, the AC50 under setting [2] was 0.398 µM [rising, full curve].
For `O=C1c2ccccc2CC[C@H]1CNCCc1ccc(O)cc1`, the max response reads like this: under setting [1], -0.333%; under setting [3], -92%.
For `Cc1cccc(CNc2ncncc2-c2ccccc2C)c1`, the max response is 23.3% under setting [1] and 31.4% under setting [3]. The AC50 under setting [2] was 0.0562 µM [rising, full curve, poor fit].
Consider `COc1ccc(-c2nc3cnc(N4CCOCC4)nc3n(-c3ccc(OC)cc3)c2=O)cc1`, for which the max response is, setting by setting: under setting [1], 12.8%; under setting [3], 18.8%. The AC50 under setting [2] is 2.82 µM [rising, full curve, poor fit].
`COc1ccccc1CNc1ccnc(-c2ccc(N(C)C)cc2)n1`: the max response under setting [1] is -32.9% and the max response under setting [3] is -64.3%. For the same compound, the AC50 under setting [4] was 39.8 µM [falling, single point].
With `COCC(=O)N1CCC[C@@]2(CCN(Cc3nccs3)C2)C1`, the max response by setting is: under setting [1], 26.8%; under setting [3], 40.1%. For the same compound, the AC50 under setting [2] is 17.8 µM [rising, single point].
In the case of `O=c1c(-c2ccccc2)nc2cncnc2n1Cc1ccccc1`, the max response by setting is: under setting [1], 18.6%; under setting [3], 26.3%. Further, the AC50 under setting [4] was 0.447 µM [rising, full curve, poor fit].
As for `CC(=O)[C@H]1CCC2C3CC=C4C[C@@H](OS(=O)(=O)O)CC[C@]4(C)C3CC[C@@]21C` (stereo partly specified), the max response by setting is: under setting [1], -5.01%; under setting [3], -1.88%.
On to `CN(C)C(=O)c1ccc(-c2nccc(NCc3cccnc3)n2)cc1`, for which the max response runs as follows: under setting [1], 24.9%; under setting [3], 36.3%. In addition, under setting [2], the AC50 is 6.31 µM [rising, partial curve].
As for `COc1cccc(-c2oc3ccccc3c(=O)c2O)c1`, the max response reads like this: under setting [1], 55%; under setting [3], 70.5%. Under setting [4], the AC50 was 7.08 µM [rising, full curve].
On to `COc1ccc(-c2coc3cc(OC4OC(CO)C(O)C(O)C4O)cc(O)c3c2=O)cc1` (stereo unspecified), for which the max response by setting is: under setting [1], 19.1%; under setting [3], 30.8%. Also, the AC50 under setting [2] was 8.91 µM [rising, partial curve, poor fit].
Turning to `CS(=O)(=O)Nc1cccc(-c2nc(NCc3cccnc3)c3ccccc3n2)c1`, the max response under setting [1] is 18.4% and the max response under setting [3] stood at 28.9%. Moreover, under setting [2], the AC50 is 0.0251 µM [rising, full curve].
`OC(CCN1CCCC1)(c1ccccc1)C1CCCCC1` (stereo unspecified): the max response under setting [1] was found to be 30.2% and the max response under setting [3] amounted to 52.5%. Further, under setting [2], the AC50 is 35.5 µM [rising, single point].
In the case of `CC[C@H](/C=C/[C@@H](C)[C@H]1CC[C@H]2C3CC=C4C[C@@H](O)CC[C@]4(C)C3CC[C@]12C)C(C)C` (stereo partly specified), the max response under setting [1] was -27.5% and the max response under setting [3] is -30.8%. Under setting [2], the AC50 is 0.001 µM [falling, full curve, poor fit].
As to `COc1cccc(Cn2c(=O)c(-c3ccccc3)nc3cncnc32)c1`, the max response by setting is: under setting [1], 20.9%; under setting [3], 31.6%. The AC50 under setting [2] is 0.0316 µM [rising, full curve].
On to `CCNc1ncc2nc(-c3cccs3)c(=O)n(CCC#N)c2n1`, for which the max response runs as follows: under setting [1], 7.93%; under setting [3], 10.1%. The AC50 under setting [2] was 1.78 µM [rising, full curve, poor fit].
For `O=C(c1cnccn1)N1CCC2(CC1)CN(Cc1cc(C(F)(F)F)cc(C(F)(F)F)c1)C2`, the max response under setting [1] is 19.4% and the max response under setting [3] was determined as 22.3%. Also, the AC50 under setting [2] is 0.0355 µM [rising, full curve, poor fit].
With `COc1ccc(Oc2ncc3nc(-c4cccc(C#N)c4)c(=O)n(CCC#N)c3n2)cc1`, the max response was -0.505% under setting [1] and -3.48% under setting [3]. Besides, the AC50 under setting [2] is 1.58 µM [rising, partial curve].
For `COc1ccc(-c2coc3cc(O)ccc3c2=O)cc1`, the max response was determined as 38.8% under setting [1] and 72.7% under setting [3]. Further, the AC50 under setting [2] was 10 µM [rising, full curve, poor fit].
Consider `O=C(c1ccccc1)[C@@H]1O[C@H]1c1ccc(-c2ccccc2)cc1`, for which the max response came to 68.8% under setting [1] and 98% under setting [3].
As to `Nc1ccc(S(=O)(=O)Nc2ccnn2-c2ccccc2)cc1`, the max response stood at 44.8% under setting [1] and 45.9% under setting [3].
The like results for `C#CC(N)CCC(=O)O` (stereo unspecified) were, in that order, 48.8% and 48.5%.
On to `CC(=O)OCC1OC(Oc2cc(OC(C)=O)c3c(=O)cc(-c4ccc(OC(C)=O)c(OC(C)=O)c4)oc3c2)C(OC(C)=O)C(OC(C)=O)C1OC(C)=O` (stereo unspecified), for which the max response is, setting by setting: under setting [1], 25.1%; under setting [3], -47.7%. In addition, the AC50 under setting [2] is 39.8 µM [falling, single point].
For the compound `COc1cc(O)c(C(=O)/C=C/c2ccc(O)c(OC)c2)c(OC)c1`, the max response worked out at 19.5% under setting [1] and 30.9% under setting [3]. The AC50 under setting [2] was 22.4 µM [rising, partial curve, poor fit].
Regarding `COc1ccc(CNc2nc(-c3ccc(N(C)C)cc3)nc3ccccc23)c(OC)c1`, the max response under setting [1] is -46.5% and the max response under setting [3] was -71.4%.
As to `COC(=O)[C@@]1(C)CCC[C@@]2(C)c3ccc(O)c(C(C)C)c3CCC21` (stereo partly specified), the max response by setting is: under setting [1], -11.3%; under setting [3], -34.9%. Further, the half-maximal activity concentration (AC50) under setting [2] was 35.5 µM [falling, single point].
For `CCNc1ncc2nc(-c3ccccc3)c(=O)n(C)c2n1`, the max response is -43.3% under setting [1] and -57.6% under setting [3]. Under setting [2], the AC50 was 39.8 µM [falling, single point].
In the case of `COc1ccc(C(=O)N2CCC3(CC2)CCN(c2ncccn2)CC3)cc1`, the max response under setting [1] worked out at 10.1% and the max response under setting [3] came to 20.9%. Besides, the AC50 under setting [2] was 0.0224 µM [rising, full curve, poor fit].
